# Reference: paper PMC4336329 (PLoS ONE, 2015)
# About 14,000 (4.5%) of roughly 310,000 compounds showed an effect of 50% or more. The effect is printed as a negative number. This is one part of the list.
# Molecular target: human ether-à-go-go-related gene (hERG) potassium channel (human, UniProt Q12809)
# Assay: primary screen, population patch clamp on CHO cells stably expressing hERG
# 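Also: peak tail current of the secondary pulse compared with the same well before compound.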
# Sequence of human ether-à-go-go-related gene (hERG) potassium channel (Q12809 whole entry, looked up): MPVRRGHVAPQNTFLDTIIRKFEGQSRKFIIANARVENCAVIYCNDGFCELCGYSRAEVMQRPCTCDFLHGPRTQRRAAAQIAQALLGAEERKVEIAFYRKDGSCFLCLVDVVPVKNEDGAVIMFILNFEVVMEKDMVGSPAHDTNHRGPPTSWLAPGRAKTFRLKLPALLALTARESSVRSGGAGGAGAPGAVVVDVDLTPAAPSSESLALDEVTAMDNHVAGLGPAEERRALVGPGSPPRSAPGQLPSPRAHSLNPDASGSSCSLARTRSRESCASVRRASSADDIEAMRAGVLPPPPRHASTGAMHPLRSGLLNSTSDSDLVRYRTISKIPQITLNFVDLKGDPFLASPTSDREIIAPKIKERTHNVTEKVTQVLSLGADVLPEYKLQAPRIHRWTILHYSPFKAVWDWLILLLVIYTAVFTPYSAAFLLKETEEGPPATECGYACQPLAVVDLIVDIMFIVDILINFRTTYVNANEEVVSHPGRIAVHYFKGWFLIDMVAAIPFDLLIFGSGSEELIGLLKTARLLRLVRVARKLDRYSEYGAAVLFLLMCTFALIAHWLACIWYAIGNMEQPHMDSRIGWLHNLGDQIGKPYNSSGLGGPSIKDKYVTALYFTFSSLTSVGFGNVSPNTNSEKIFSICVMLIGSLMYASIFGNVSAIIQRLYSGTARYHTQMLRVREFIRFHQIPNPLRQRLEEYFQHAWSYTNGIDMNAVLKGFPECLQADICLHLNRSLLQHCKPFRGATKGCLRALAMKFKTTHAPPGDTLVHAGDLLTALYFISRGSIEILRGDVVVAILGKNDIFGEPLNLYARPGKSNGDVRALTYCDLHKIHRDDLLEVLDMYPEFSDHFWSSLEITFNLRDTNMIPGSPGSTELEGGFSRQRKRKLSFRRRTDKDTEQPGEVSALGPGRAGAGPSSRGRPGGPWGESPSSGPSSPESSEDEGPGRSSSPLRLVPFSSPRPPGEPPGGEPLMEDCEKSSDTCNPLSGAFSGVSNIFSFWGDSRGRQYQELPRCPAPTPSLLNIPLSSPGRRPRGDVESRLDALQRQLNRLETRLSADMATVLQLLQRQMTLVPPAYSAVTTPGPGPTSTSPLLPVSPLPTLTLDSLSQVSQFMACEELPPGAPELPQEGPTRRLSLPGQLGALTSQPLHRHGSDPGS
row,Structure (SMILES),"hERG current change (%, negative = inhibition) at 10uM [%]"
1,Cc1ccc(NC(=O)CNC(=O)c2ccc(Oc3ccccc3)cc2)nc1,4.34
2,O=C(Nc1cccnc1)c1ccc([N+](=O)[O-])s1,-20.1
3,O=C(Nc1cccnc1)c1ccc(Cl)c(S(=O)(=O)N2CCCCCC2)c1,-31.6
4,COc1cc(C(=O)NCC2CCCO2)cc(OC)c1OC (centres unmarked),16.8
5,NC(=O)CN(C/C=C/c1ccccc1)C/C=C/c1ccccc1,20.6
6,CCC(C)[C@H](NC(=O)C1CC(=O)N(c2ccc3c(c2)OCO3)C1)C(=O)NC1CCCCC1 (some centres unmarked),29
7,CCN(CC)C(=O)CSc1nc2[nH]ncc2c(=O)[nH]1,1.09
8,CO/N=C/c1cccn1-c1nccc(OC)c1C#N,19.1
9,CCOC(=O)c1ccccc1NC(=O)CN1C(=O)NC(C)(CCc2ccccc2)C1=O (centres unmarked),-33.2
10,CCOC(=O)N1CCN(c2ccc(C(F)(F)F)cn2)CC1,-4.3
11,CCCN(Cc1nc2cc(Cl)ccc2c(=O)[nH]1)C(=O)c1ccc(S(=O)(=O)N2CCCC2)cc1,-39.2
12,CCN(CC)CC.CCOc1ccccc1-n1c(=S)sc2c(=O)n(-c3ccccc3)c(=S)[nH]c21,26.5
13,COc1ccc(C(=O)Nc2cccc3cccnc23)cc1OC,2.81
14,CCOC(=O)c1sc(NC(=O)c2ccco2)nc1C,13.3
15,O=C(O)c1csc(-c2ccccc2)n1,6.74
16,COc1ccc(C(=O)OCC(=O)NCCCc2ccccc2)cc1[N+](=O)[O-],-17.2
17,COC(=O)c1[nH]c2ccc(Br)cc2c1NC(=O)C(C)N1CCN(C2CCCCC2)CC1 (centres unmarked),-78.2
18,CCN(CC(=O)Nc1ccc(NC(C)=O)cc1)CC(=O)Nc1ccc(F)c(Cl)c1,-2.92
19,Cc1ccc(-n2ncc(C(=O)Nc3cc(Cl)ccc3Cl)c2C2CCNCC2)cc1.Cl,-62
20,Cc1c(Cl)cccc1NC(=O)Cc1cccs1,15
21,CCCCn1nc(NC(=O)CCC)c2cc3cc(OC)ccc3nc21,-3.42
22,Cc1ccc(C)c(OCC(=O)Nc2c(C)n(C)n(-c3ccccc3)c2=O)c1,3.41

row,Structure (SMILES),"hERG current change (%, negative = inhibition) at 10uM [%]"
1,Cc1ccc(C(=O)N2CCCC(N3CCN(c4ccccc4C)CC3)C2)c(=O)[nH]1 (centres unmarked),-18.1
2,CC(C)/C=C/CN1CCN(CCCc2ccccc2)C(CCO)C1 (centres unmarked),-73.4
3,O=C(c1ccco1)N1CCCN(Cc2cn[nH]c2-c2ccc(-c3ccccc3)cc2)CC1,-59.3
4,CC(C)(C)NC(=O)C(c1ccc(F)cc1)N(C(=O)CCC(=O)Nc1ccccn1)C1CCCC1 (centres unmarked),-9.2
5,CCCCNc1cc(C(=O)O)cc(S(N)(=O)=O)c1Oc1ccccc1,-7.67
6,Cc1ccc(-c2nc3[nH]c(=O)cc(NC(=O)c4cccs4)n3n2)cc1,-6.07
7,CCOC(=O)Cn1nc(/C=C/c2ccc(C)cc2)ccc1=O,5.68
8,COc1cc(C(=O)NCCN2C(=O)S/C(=C\c3ccc(F)cc3)C2=O)ccc1OCC(=O)N1CCOCC1,2.84
9,Cc1c(C(c2cccc(Br)c2)c2c(C)n(C)n(-c3ccccc3)c2=O)c(=O)n(-c2ccccc2)n1C.Cl,-1.15
10,O=C(C1=C(O)C(=O)N(Cc2ccco2)C1c1cccc(O)c1)c1ccco1 (centres unmarked),12.8
11,COc1ccc2nc(SCC(=O)N3CCCCC3)c(C#N)cc2c1,-2.33
12,COc1ccccc1C(=O)N1CCN(c2ccccn2)CC1,-22.8
13,O=C(NC1CCCCC1)[C@@H]1CC=C[C@@H]2CCN(C3CCCCC3)C(=O)[C@@H]21,3.97
14,O=C(CCNc1ccc(F)c(Cl)c1)c1ccco1,-3.88
15,NS(=O)(=O)c1ccc(CNC(=O)C(Cc2ccccc2)NS(=O)(=O)c2ccccc2F)cc1 (centres unmarked),9.99
16,Cc1ccc(S(=O)(=O)N/N=C/c2ccc(OS(=O)(=O)c3ccc(C)c([N+](=O)[O-])c3)cc2)cc1,7.76
17,CC(NC(=O)c1cccs1)c1ccc(Cl)cc1 (centres unmarked),-36.1
18,COC(=O)c1ccccc1NC(=O)COc1ccccc1[N+](=O)[O-],3.55
19,COCCNC(=O)c1cc2c(=O)n3cccc(C)c3nc2n1C,11.7
20,CCSc1nnc(NS(=O)(=O)c2ccc(OC)cc2)s1,13.4
21,FC(F)(F)c1cc(Cl)c2nnc(-c3cccnc3)n2c1,9.97
22,O=S(=O)(NC1c2cccc3cccc(c23)C1N1CCNCC1)c1ccccc1 (centres unmarked),-27.2

row,Structure (SMILES),"hERG current change (%, negative = inhibition) at 10uM [%]"
1,O=C(Cc1cccs1)Nc1cccc(-c2ccc3nncn3n2)c1,-28.4
2,Cc1ccc(N(C(=O)c2ccc(S(=O)(=O)N3CCOCC3)cc2)C2C=CS(=O)(=O)C2)cc1 (centres unmarked),3.58
3,CCOC(=O)c1c(-c2ccccc2)csc1NC(=O)CSc1nncs1,-3.32
4,COc1cc(CNc2ccc3c(c2)CCC3)cc(OC)c1O,12.2
5,Nn1cnc2c([nH]c3ccccc32)c1=O,-0.0281
6,O=C(O)c1oc2ccc(Br)cc2c1-n1cccc1,13.4
7,Cc1ccc2[nH]cc(CCNC(=O)CN3C(=O)c4ccccc4C3=O)c2c1,-26.1
8,CCSc1nc2c(c(=O)[nH]1)C(c1ccncc1)C(C(=O)OC(C)C)=C(C)N2 (centres unmarked),6.44
9,Clc1cccc(C2CCN(Cc3nc(COc4ccccc4)no3)C2)c1 (centres unmarked),-40.7
10,CN(C)S(=O)(=O)c1cccc(COC(=O)Cc2c(F)cccc2Cl)c1,9.75
11,C/C(=N\NC(=O)c1nn(C)cc1Br)c1ccncc1,-0.642
12,CCOC(=O)N1CCN(C(=O)c2cc(COc3cccc(C(F)(F)F)c3)on2)CC1,-76.7
13,CCc1ccc(Oc2cc(C)nc(N)n2)cc1,-1.75
14,CC(C)CN(C(=O)COC(=O)Cc1c[nH]c2ccccc12)C1CCS(=O)(=O)C1 (centres unmarked),13.6
15,O=[N+]([O-])c1ccc(N2CCCC2)cc1N1CCCC1,1.62
16,COc1ccc2nc3c(nc2c1)CCCC3,0.0196
17,Cc1ccc(C(=O)c2c3ccc(C(F)(F)F)cc3nn2CCC(N)=O)cc1,-5.81
18,CCn1c(CSc2nnc(-c3ccncc3)n2C)nc2cc(C(=O)O)ccc21,16.5
19,CCCCn1c(N)c(N(CC)C(=O)c2ccc3c(c2)S(=O)(=O)c2ccccc2C3=O)c(=O)[nH]c1=O,8.41
20,N/C(=N\OC(=O)CCC1CCCCC1)c1ccc([N+](=O)[O-])cc1,-8.1
21,Cc1cc(C)cc(NC(=O)C2(c3ccccc3)CC2(Cl)Cl)c1 (centres unmarked),-9.57
22,Cc1[nH]c(C(=O)N/N=C/c2ccc(C(=O)O)cc2)c(C)c1C(=O)N/N=C/c1ccc(C(=O)O)cc1,-15.7

row,Structure (SMILES),"hERG current change (%, negative = inhibition) at 10uM [%]"
1,Cc1ccc(O)c(C(=O)c2cnn(C(=O)COc3ccc(Cl)cc3)c2)c1,-0.932
2,Cc1cc2oc(=O)cc(CN3CCN(S(=O)(=O)c4cccs4)CC3)c2cc1C,-5.34
3,CCOc1ccc(C(=O)N(CN2CCCC2=O)c2ccccc2)cc1,6.89
4,COc1ccc(NC2=C(C(C)=O)C(c3ccc(OC)cc3)C(C(C)=O)C(C)(O)C2)cc1 (centres unmarked),24.3
5,CC(=O)Cc1cc(O)c2ccccc2c1OC(=O)c1ccc(Br)cc1,-4.46
6,O=C(NC1CC2CCC1C2)c1ccco1 (centres unmarked),-5.69
7,O=C(CNc1cccc(C(F)(F)F)c1)N/N=C/C1CCCCC1,21.5
8,CC(=O)c1cc(C#N)c(N2CCN(c3ccccc3)CC2)nc1C,7.12
9,C/C(CC(=O)Nc1cccc(Cl)c1Cl)=N\NC(=O)C(=O)N1CCCC1,3.99
10,Cc1cccc(N(C(=O)CNC(=O)c2ccco2)C(C(=O)NC2CCCC2)c2cccnc2)c1 (centres unmarked),3.99
11,Cc1cc(C)c(S(=O)(=O)N2CCOC2CNC(=O)C(=O)NCCCn2ccnc2)c(C)c1 (centres unmarked),-8.31
12,CCOC(=O)c1cc(NC(=O)/C=C\C(=O)O)ccc1Cl,7.2
13,COc1ccc(/C=C(/NC(=O)c2ccccc2)C(=O)N/N=C/c2ccncc2)cc1,9.78
14,N/C(=N\OC(=O)C(c1ccccc1)c1ccccc1)c1ccncc1,-26.5
15,N#C/C(=C\c1cccc([N+](=O)[O-])c1)C(=O)NCC1CCCO1 (centres unmarked),-2.61
16,CCc1ccc(NC2CC(=O)N(CCc3ccc(OC)c(OC)c3)C2=O)cc1 (centres unmarked),-13.4
17,Cc1cccc(C)c1OCCNC(=O)C(=O)NCc1ccco1,9.93
18,Cc1c(N=Cc2c(O)n(CCc3ccc(F)cc3)c(=O)[nH]c2=O)c(=O)n(-c2ccccc2)n1C,-61.9
19,O=C(CCc1nc2ccccc2c(=O)[nH]1)OCc1ccc(Cl)cc1Cl,2.87
20,O=C(Nc1ccc(Br)cc1)C1CC(O)CN1C(=O)OCc1ccccc1 (centres unmarked),1.39
